In article PMC4336329 (PLoS ONE, 2015):
Among all 310,000 compounds or so, about 2,200 (0.71%) showed an effect of 50% or more. Effects have a minus sign here. Some of the results follow.

These molecules were tested against human ether-à-go-go-related gene (hERG) potassium channel (human, UniProt Q12809) (assay: primary screen, population patch clamp on CHO cells stably expressing hERG).
human ether-à-go-go-related gene (hERG) potassium channel, sequence (Q12809 whole entry, looked up): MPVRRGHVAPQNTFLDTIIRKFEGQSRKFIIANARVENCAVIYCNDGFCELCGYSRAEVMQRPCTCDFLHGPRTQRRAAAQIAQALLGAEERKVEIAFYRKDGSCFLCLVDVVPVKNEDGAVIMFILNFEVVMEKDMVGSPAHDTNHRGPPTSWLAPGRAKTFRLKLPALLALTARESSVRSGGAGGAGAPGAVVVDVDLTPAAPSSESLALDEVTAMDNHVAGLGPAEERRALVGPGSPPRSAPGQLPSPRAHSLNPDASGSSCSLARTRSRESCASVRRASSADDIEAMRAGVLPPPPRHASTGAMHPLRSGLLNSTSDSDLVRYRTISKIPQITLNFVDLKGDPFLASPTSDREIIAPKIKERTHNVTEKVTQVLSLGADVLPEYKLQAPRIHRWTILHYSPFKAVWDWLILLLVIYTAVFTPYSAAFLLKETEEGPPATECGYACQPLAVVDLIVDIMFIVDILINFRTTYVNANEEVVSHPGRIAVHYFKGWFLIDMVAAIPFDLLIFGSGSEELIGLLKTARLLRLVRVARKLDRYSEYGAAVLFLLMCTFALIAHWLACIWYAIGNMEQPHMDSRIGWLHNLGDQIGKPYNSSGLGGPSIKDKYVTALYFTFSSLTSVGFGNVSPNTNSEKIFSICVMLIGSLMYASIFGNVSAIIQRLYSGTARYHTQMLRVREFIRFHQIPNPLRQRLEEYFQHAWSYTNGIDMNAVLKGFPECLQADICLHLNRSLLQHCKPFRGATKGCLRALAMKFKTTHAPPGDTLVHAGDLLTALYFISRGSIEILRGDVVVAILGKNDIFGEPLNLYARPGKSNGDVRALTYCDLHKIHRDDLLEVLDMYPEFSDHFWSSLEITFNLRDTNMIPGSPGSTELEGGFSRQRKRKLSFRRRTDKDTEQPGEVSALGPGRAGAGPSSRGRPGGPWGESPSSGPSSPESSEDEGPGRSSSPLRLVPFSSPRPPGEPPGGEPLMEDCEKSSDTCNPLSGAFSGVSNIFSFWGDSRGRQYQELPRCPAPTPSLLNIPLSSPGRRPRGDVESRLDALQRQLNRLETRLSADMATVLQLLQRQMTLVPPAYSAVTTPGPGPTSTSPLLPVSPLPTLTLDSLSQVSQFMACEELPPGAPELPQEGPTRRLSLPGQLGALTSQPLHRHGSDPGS

Row | SMILES | hERG current change (%, negative = inhibition) at 1uM [%]
1 | COC(=O)C1=C(C(=O)OC)[C@@H]2N(C)c3ccc(OC)cc3[C@@]23C[C@@H](C(=O)OC)N=C3N1 | -5.71
2 | O=C1NC(c2ccccc2)=NC1(Nc1ccccn1)C(F)(F)F (centres unmarked) | -1.83
3 | Cc1ccc(OCC(=O)NNc2c3ccccc3nc3ccccc23)cc1 | 14.2
4 | Cn1c(=O)n(C)c2cc(NS(C)(=O)=O)ccc21 | 8.26
5 | COc1ccc(C2SCC(C(=O)O)N2C(C)=O)cc1 (centres unmarked) | 13.9
6 | O=C1CC(c2ccc3c(c2)OCO3)c2cc3c(cc2N1)OCCO3 (centres unmarked) | 6.93
7 | CS(=O)(=O)N(CC(=O)N1CCN(C(c2ccccc2)c2ccccc2)CC1)C1CCCCC1 | 4.66
8 | O=c1c2cn[nH]c2[nH]c(=S)n1-c1cccc(Cl)c1 | 11.5
9 | O=c1[nH]c(=S)n(-c2ccccc2)c(O)c1C=NCc1ccccn1 | 2.46
10 | O=C1CC(CC(=O)N/N=C/c2ccccc2[N+](=O)[O-])=NN1 | 16.6
11 | Cc1ccc2c(c1)C(=O)CC(c1ccc3c(c1)OCCO3)O2 (centres unmarked) | 6.86
12 | CC(=O)C1=C(C)NC(SCC(N)=O)=C(C#N)C1c1cccs1 (centres unmarked) | 1.99
13 | CCCCN(C(=O)c1ccco1)c1c(N)n(CCC)c(=O)[nH]c1=O | 3.28
14 | CCN1CCN(C(=O)CCn2c(=O)c3cccn3c3cccnc32)CC1 | 7.54
15 | CC1CCCC(C)N1C(=O)Cc1ccccc1 (centres unmarked) | 5.01
16 | Cc1cc(C)nc(NC(=O)CSc2nn(-c3ccccc3)c(=S)s2)n1 | 10
17 | COc1ccc(/C=N/N(C(C)=O)c2nc(-c3ccc(C)cc3)cs2)cc1 | 10
18 | O=C(CN1CCN(CN2C(=O)NC3(CCCCCC3)C2=O)CC1)Nc1ccc(F)cc1 | 11.8
19 | COc1cccc(Nc2nc3ccccc3nc2-n2nc(C)cc2C)c1 | 17.8
20 | COc1ccc(N(C(C)=O)S(=O)(=O)c2cccc3cccnc23)cc1 | 8.13
21 | Cc1ccc(-c2noc(CN(C)C(=O)c3ccc(Br)o3)n2)cc1 | 1.11
22 | O=c1c2ccccc2oc2ccc(C#CC3(O)CCCCC3)cc12 | 2.36
23 | CCOC(=O)/C=C1\CC(=O)Nc2nonc2N1 | 0.0361

Row | SMILES | hERG current change (%, negative = inhibition) at 1uM [%]
24 | CC1(C)CC(=O)C(N=Nc2cc(Cl)c(Cl)c(Cl)c2)=C(O)C1 | 12.8
25 | CCOc1ccccc1C1C(C(=O)Nc2ccccc2OC)=C(C)Nc2nnnn21 (centres unmarked) | 7.72
26 | O=C(Cc1ccc(-n2c(=O)[nH]c3ccccc3c2=O)cc1)N1CCN(c2ccccc2)CC1 | 8.5
27 | COc1ccc(C(=O)Nc2ccc(S(=O)(=O)Nc3cc(C)nc(C)n3)cc2)cc1 | 17.4
28 | CCn1nc(NC(=O)c2ccncc2)c2cc3cc(C)ccc3nc21 | 12.8
29 | CC(C)NS(=O)(=O)c1ccc(NC(=O)NC2CCCCC2)cc1 | 1.42
30 | Cc1ccc(OCC(=O)N2CCN(S(=O)(=O)c3ccc(Cl)s3)CC2)cc1C | 10.6
31 | Cc1onc(-c2ccccc2Cl)c1C(=O)OCC(=O)c1ccc2c(c1)OCCO2 | 12.8
32 | O=C(Nc1nccs1)c1cc(Cl)ccc1[N+](=O)[O-] | 6.59
33 | COc1ccc(N=C2NC(=O)C(CC(=O)NCCc3ccc(OC)c(OC)c3)S2)cc1 (centres unmarked) | -0.595
34 | COc1ccc(-n2c(-c3ccco3)nc3ccccc3c2=O)cc1 | 8.95
35 | O=C(C1CCN(c2ncnc3c2sc2cccc(F)c23)CC1)N1CCOCC1 | -6.76
36 | COc1ccc(C(=O)N/C(=C\c2ccc3c(c2)OCO3)C(=O)Nc2cccc(C(=O)O)c2)cc1 | 7.13
37 | CC(C)n1c(Nc2ccccc2)nc2ccccc21 | 2.62
38 | CCOC(=O)c1cc(C(=O)OCC)c(=O)[nH]c1N1CCCC1 | 3.97
39 | O=C(COC(=O)C1CC1)NC(=O)c1ccccc1 | -4.44
40 | O=C(Nc1ccccc1Oc1ccccc1)c1ccccc1F | 5.6
41 | COc1cc2c(cc1NC(=O)CSc1nnnn1-c1ccccc1)oc1ccccc12 | -5.22
42 | Cc1ccc2nc(NC(=O)C3CC(=O)N(Cc4ccco4)C3)sc2c1 (centres unmarked) | 16.8
43 | O=C(N/N=C/c1cccc(O)c1)c1cc(-c2ccccc2)nc2ccccc12 | 14.2
44 | CC1=CC(C)(C)N(C(=O)c2ccccc2)c2ccccc21 | -1.53
45 | Oc1ccc(/C=N/Nc2ccnc3cc(Cl)ccc23)c(O)c1O | 8.22
46 | COc1ccc(NC(=O)NCCN2CCc3ccccc3C2)cc1 | -1.55

Row | SMILES | hERG current change (%, negative = inhibition) at 1uM [%]
47 | O=C(NNC(=O)c1ccncc1)c1ccncc1 | 20.8
48 | O=C(O)CCC(=O)Nc1nc2ccc([N+](=O)[O-])cc2s1 | 7.91
49 | COc1ccc(N2CCN(C(=O)CN(Cc3ccccc3)S(C)(=O)=O)CC2)cc1 | -3.72
50 | COc1ccc(OC)c(S(=O)(=O)N2CCC(c3nc4ccccc4[nH]3)CC2)c1 | -7.22
51 | Cc1ccc(NC(=O)C(C)OC(=O)/C=C/c2ccccc2)cc1 (centres unmarked) | 9.66
52 | COc1ccccc1N1CCN(C2CCCN(C(=O)c3ccsc3)C2)CC1 (centres unmarked) | 1.98
53 | O=C(/C=C/c1cc([N+](=O)[O-])ccc1OC(F)F)Nc1cccc2ccccc12 | 11.8
54 | CCCCOCC(O)CN1CCN(C(C)=O)CC1.O=C(O)C(=O)O (centres unmarked) | 14.8
55 | CC1CCCN(C(=O)CCNS(=O)(=O)c2ccc3c(c2)c(=O)n(C)c(=O)n3C)C1 (centres unmarked) | -4.34
56 | Cn1c(=O)oc2cc(S(=O)(=O)NC(Cc3ccccc3)C(=O)N3CCCCC3)ccc21 (centres unmarked) | 10.9
57 | CCOc1ccc(N2C(=O)CC(NCC3CCCO3)C2=O)cc1 (centres unmarked) | -0.391
58 | Cc1c(C(=O)NCc2ccccc2)cnn1-c1ccccc1 | 3.83
59 | CC(=O)Nc1ccc(S(=O)(=O)N2CCN(C(=O)N3CCOCC3)CC2)cc1 | 8.94
60 | COc1ccccc1OCC(=O)Nc1nnc(C2CCCC2)s1 | 16.3
61 | COc1cc(C(C)=O)ccc1OCC(=O)OCCCOC(=O)COc1ccc(C(C)=O)cc1OC | 13.8
62 | COc1ccc2cc(C(=O)N3CCCC(Nc4ccc(F)cc4)C3)n(C)c2c1 (centres unmarked) | 6.16
63 | Cc1ccc(CN2CCNC(=O)C2CC(=O)NCc2csc(C(C)C)n2)cc1 (centres unmarked) | 0.784
64 | CCCCN(C(=O)CSCc1ccc(C)cc1)c1c(N)n(CCC)c(=O)[nH]c1=O | 0.707
65 | CC(C)c1ccccc1NC(=O)COC(=O)c1cc([N+](=O)[O-])ccc1N1CCOCC1 | 10.4
66 | CCOC(=O)c1ccccc1NC(=O)CSc1ccc(-c2cccnc2)nn1 | -18.2
67 | O=C(O)c1nccnc1C(=O)Nc1ccc(Cl)cc1Cl | 17.4
68 | N#Cc1c(Cn2cncn2)nc(=O)n(-c2ccc(Cl)cc2)c1N | 17.1
69 | CCOc1ccccc1OCC(=O)Nc1ccc(Cl)cc1C(=O)c1ccccc1 | 15.4

Row | SMILES | hERG current change (%, negative = inhibition) at 1uM [%]
70 | NS(=O)(=O)c1ccc(Nc2ncccc2[N+](=O)[O-])cc1 | 20.7
71 | C=CCOc1ccc(/C=N/n2cncn2)cc1OC | 0.678
72 | CCN1CCCC1CNS(=O)(=O)c1ccc(F)c(Cl)c1 (centres unmarked) | 10.8
73 | CC12CN3CC(C)(CN(C1)C3c1ccncc1)C2=O (centres unmarked) | 12.3
74 | O=C(O)c1cc(-c2ccc(Cl)c(Cl)c2)n(-c2ccccc2)n1 | 9.21
75 | Cc1ccc(NC(=O)CCS(=O)(=O)c2ccc(Br)cc2)nc1 | 23.7
76 | O=C(Cn1c(-c2ccc(Cl)cc2)noc1=O)N1CCN(c2ccccc2F)CC1 | -6.47
77 | Cc1ccc(S(=O)(=O)N(C)CC(=O)NC2CC(C)(C)NC(C)(C)C2)cc1 | 4.83
78 | O=C(c1ccco1)N1N=C(c2ccco2)CC1c1ccc(Cl)cc1Cl (centres unmarked) | 13.1
79 | CC(O)CNCCOc1ccccc1-c1ccccc1.O=C(O)C(=O)O (centres unmarked) | 5.13
80 | O=C(O)CNC(=O)/C=C/c1c(Cl)cccc1Cl | -6.28
81 | CCn1c(SCC(=O)Nc2ccc(N3CCOCC3)cc2)nnc1C1CC1 | 14.6
82 | Cc1csc(=O)n1CC(=O)Nc1nc2ccccc2s1 | -2
83 | CC(Oc1ccc(Br)cc1)C(=O)N1CCc2ccccc21 (centres unmarked) | 6.01
84 | COc1ccc(C(=O)O/N=C(\N)c2ccccn2)c(OC)c1 | 13.6
85 | O=C(c1ccc2c(c1)N(Cc1ccccc1)C(=O)c1ccccc1S2)N1CCCC1 | 7.21
86 | O=C(NC1CCCCC1)N1CCC(c2nc3ccccc3[nH]2)CC1 | -0.86
87 | Cc1ccc(NC(=O)COC(=O)COc2cccc3c2OC(C)(C)C3)cc1S(=O)(=O)N1CCOCC1 | 15
88 | COC(=O)C(N)Cc1ccc(OC)c([N+](=O)[O-])c1.Cl (centres unmarked) | 8.87
89 | COCCN(Cc1ccco1)C(=O)C1CCCN(c2ncnc3c2nc2n3CCCCC2)C1 (centres unmarked) | -2.93
